Measured values reported in PubChem BioAssay AID485294 (National Center for Advancing Translational Sciences (NCATS), 2010).
Hit rate of the full screen: of about 370,000 compounds, about 150 (0.041%) were called active. This list was built around the results that the source calls inconclusive (neither active nor inactive); the mix of calls is not that of the screen. Calls come from the whole dose curve; as a rule, active = well fitted inhibition curve with a large enough effect; inconclusive = small, poorly fitted or top-dose-only effect; inactive = flat fitted curve, though single readings scatter. No potency is given beside an inconclusive call; the fits are too rough.

Target: Beta-lactamase (Escherichia coli (strain K12)) (UniProt P00811)
Sequence of UniProt P00811 (P00811 whole entry, looked up): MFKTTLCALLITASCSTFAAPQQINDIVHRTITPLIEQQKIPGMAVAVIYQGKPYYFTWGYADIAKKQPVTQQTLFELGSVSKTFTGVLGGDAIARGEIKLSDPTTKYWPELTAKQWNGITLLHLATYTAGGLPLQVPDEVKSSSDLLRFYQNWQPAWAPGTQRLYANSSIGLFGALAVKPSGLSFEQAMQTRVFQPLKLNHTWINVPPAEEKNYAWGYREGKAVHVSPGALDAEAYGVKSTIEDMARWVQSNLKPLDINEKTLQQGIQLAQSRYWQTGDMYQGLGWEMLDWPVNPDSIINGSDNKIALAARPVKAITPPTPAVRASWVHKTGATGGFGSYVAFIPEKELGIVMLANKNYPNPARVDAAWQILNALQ
Assay: qHTS Inhibitors of AmpC Beta-Lactamase (assay with detergent); note: nearly all actives have a fitted effect of over 25% in size;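 for activity change, negative = inhibition: 0% = no-compound wells and -100% = no-enzyme wells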
Conditions: AmpC hydrolysis of nitrocefin, absorbance 480 nm, 0.01% Triton; activity change, negative = inhibition: at 114 µM (top of the series)
Summary of the method: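 AmpC (5.3 nM in the dispensed reagent) in 20 mM phosphate pH 7.0 with 0.01% (detergent screen) or 0.0001% Triton X-100 was preincubated with compounds for 15 min at room temperature. Nitrocefin was then added from an 800 uM solution, and hydrolysis was followed at 480 nm.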
Potency is the fitted concentration of half-maximal effect; tags give direction and shape of the fitted curve.

SMILES	Potency	activity change, negative = inhibition
CCN1C(=O)c2ccccc2S(=O)c2ccc(C(=O)N3CCN(c4ccccc4)CC3)cc21 (configuration not stated)	inconclusive [inhibitor, partial curve]	
CC(C)(C)c1ccccc1NC(=O)c1ccc(-n2cncn2)c([N+](=O)[O-])c1	inconclusive [inhibitor, full curve, poor fit]	
CN(C)CCCNc1cc(O)c2ncccc2c1	inconclusive [inhibitor, full curve, poor fit]	
O=C(CSc1nnc2ccccn12)Nc1ccccc1C(=O)NC1CC1	inconclusive [inhibitor, partial curve, poor fit]	
OCCN(CCCn1c(-c2ccncc2)nc2ccccc21)c1nc(CN2CCCCC2)cs1	inconclusive [inhibitor, full curve, poor fit]	
COc1ccc(CC(=O)NNS(=O)(=O)c2ccccc2[N+](=O)[O-])cc1		inactive: -1.92%
CCOC(=O)/C(C#N)=C1/C=Cc2ccccc2N1CC	inconclusive [inhibitor, partial curve, poor fit]	
CCc1nnc(NC(=O)C(CC)c2ccccc2)s1 (configuration not stated)	inconclusive [inhibitor, partial curve]	
Cc1ccc(Cl)cc1N(CC(=O)N1CCCCCC1)S(C)(=O)=O	inconclusive [inhibitor, partial curve]	
C=CCn1c(SCC(=O)Nc2sccc2C(N)=O)nc2ccccc2c1=O		inactive: 1.64%
COc1ccc(Nc2sc(C(=O)c3ccccc3)c(N)c2C(=O)Nc2cc(C)ccc2C)c(OC)c1		inactive: -3.82%
O=C(Nc1ccccn1)c1cc(-c2cccc(Cl)c2)nc2ccccc12		inactive: 4.37%
CCOc1ccc(S(=O)(=O)NCCC(=O)N2CCCC(C)C2)cc1 (configuration not stated)	inconclusive [inhibitor, full curve, poor fit]	
COC(=O)C1=C(C)N(C)C(C)=C(C(=O)OC)C1c1ccncc1	inconclusive [inhibitor, full curve]	
CC(/C=C/c1ccccc1)=N\Nc1nc2c(c(=O)[nH]c(=O)n2C)n1CCO		inactive: 9.56%
Cc1ccc(OCC(O)CN2C(=O)NC(C)(C)C2=O)cc1C (configuration not stated)	inconclusive [inhibitor, full curve]	
Cc1cccc(-c2nc3scc(CCNS(=O)(=O)c4ccc(F)cc4C)n3n2)c1		inactive: 2.66%
CCC(C)(C)NC(=O)c1cc([N+](=O)[O-])ccc1N1CCOCC1	inconclusive [inhibitor, partial curve, poor fit]	
CC(C)(C)S(=O)(=O)c1ccccc1C(=O)O		inactive: -12%
COc1cccc(NC(=O)CN(C)C(=O)CC(C)c2ccccc2)c1 (configuration not stated)		inactive: -1.83%
Cc1ccc(S(=O)(=O)c2c(N)n(CCCO)c3nc4ccccc4nc23)cc1		inactive: -12.7%
COC(CNC(=O)C1CCN(S(=O)(=O)c2ccc3nc4c(c(C(=O)O)c3c2)CC(C)CC4)CC1)OC (configuration not stated)	inconclusive [inhibitor, partial curve, poor fit]	
O=C1CN(S(=O)(=O)c2ccc(Cl)cc2)CC(=O)N1CCc1ccccc1	inconclusive [inhibitor, full curve, poor fit]	
CCCCNC(=O)C1CCN(Cc2ccc(OCc3ccccc3)cc2)CC1	inconclusive [inhibitor, full curve, poor fit]	

SMILES	Potency	activity change, negative = inhibition
CCCCOC(=O)Nc1ccc(N2CCCCC2)cc1		inactive: -10%
O=C(CSc1nnnn1C1CC1)Nc1cccc(S(=O)(=O)N2CCCC2)c1		inactive: 0.722%
Cc1ccc(-c2csc(=S)n2CC(=O)OCC(=O)NCc2ccco2)cc1	inconclusive [inhibitor, full curve, poor fit]	
CCOC(=O)CSC1=C(C#N)C(c2ccc(C)s2)CC(=O)N1 (configuration not stated)	inconclusive [inhibitor, full curve, poor fit]	
Cc1noc(C)c1COc1ccccc1C(=O)NC(C)c1ccc(Cl)cc1 (configuration not stated)		inactive: -5.77%
CSC1=NCCN1CCOc1ccccc1	inconclusive [inhibitor, single point]	
COc1cccc(-c2nnn(CC(C)=O)n2)c1		inactive: -3.92%
COCCn1ccc2c(OCC(=O)Nc3ccccc3OC)cccc2c1=O	inconclusive [inhibitor, full curve, poor fit]	
CCc1ccc(/C=C2\SC(=S)N(CCCC(=O)Nc3ccccc3C(=O)O)C2=O)cc1		inactive: 0.758%
CCN1CCN(c2ccc(S(=O)(=O)N3CCCCC3)cc2NC(=O)Cc2ccc(Cl)c(Cl)c2)CC1		inactive: -19.5%
COC(C[C@H](O)CC(=O)[C@H](C)OCc1ccccc1)OC		inactive: -12.2%
O=C(CCCn1c(SCc2cc(=O)n3ccccc3n2)nc2ccccc2c1=O)NCC1CCCO1 (configuration not stated)	inconclusive [inhibitor, partial curve, poor fit]	
CN(C(=O)c1ccc2c(c1)OCO2)C1CCS(=O)(=O)C1 (configuration not stated)	inconclusive [inhibitor, partial curve, poor fit]	
O=C1CS/C(=C/C(=O)c2cccc(Cl)c2)N1		inactive: -2.08%
COc1cc(CNc2ccc3[nH]c(=O)[nH]c3c2)cc(Cl)c1OCC(=O)NC(C)(C)C		inactive: -1.25%
S=C(Nc1ccc2nccnc2c1)N1CCOCC1		inactive: 3.02%
CCc1nnc(NC(=O)c2cc(-c3ccccn3)nc3ccccc23)s1		inactive: -9.11%
O=C(CSCc1ccc(Cl)cc1)Nc1ccc2c(c1)OCO2		inactive: -12.8%
Cc1cc2nccc(-c3cccnc3)n2n1	inconclusive [inhibitor, partial curve, poor fit]	
Cc1ccc(S(=O)(=O)Cc2ccccc2Cl)cc1	inconclusive [inhibitor, partial curve, poor fit]	
O=C(c1cccs1)c1cn(CCOc2ccc(Cl)cc2)c2ccccc12		inactive: -3.12%
CCC(=O)Oc1cc(C(C)(C)C)cc2cc(-c3nc(-c4ccc(OC)cc4OC)no3)c(=O)oc12		inactive: 14.5%
CCn1c(COc2ccccc2C)nnc1SCC(=O)N1CCC(C)CC1	inconclusive [inhibitor, full curve]	
Cc1ccc(-c2cnc(NC(=O)c3cccc(Br)c3)s2)c(C)c1	inconclusive [inhibitor, single point]	

SMILES	Potency	activity change, negative = inhibition
CCOc1ccc(Oc2c(/C=N/NC(=O)C3CC3)c(C)nn2-c2ccccc2)cc1	inconclusive [inhibitor, partial curve]	
Cc1ccc(NC(=O)CSC2=C(C#N)C(c3ccco3)C3=C(CCCC3=O)N2)cc1 (configuration not stated)		inactive: -4.77%
Cc1ccc(-n2nc3c(N4CCC(C(=O)NC5CCC(C)CC5)CC4)nnc(C)c3c2C)cc1 (configuration not stated)	inconclusive [inhibitor, single point]	
O=C(NC(Nc1ncc(S(=O)(=O)c2ccc([N+](=O)[O-])cc2)s1)(C(F)(F)F)C(F)(F)F)c1ccc(Cl)cc1		inactive: -0.986%
CCCN(c1ccc(C(C)C)cc1)S(=O)(=O)c1ccc2c(c1)n(C)c(=O)c(=O)n2C		inactive: 0.529%
COc1ccc([N+](=O)[O-])cc1Nc1ncnc2ccccc12		inactive: -0.0575%
COC(=O)c1ccccc1-c1c2ccc(=N)cc-2oc2cc(N)ccc12	inconclusive [inhibitor, full curve, poor fit]	
Cc1cccc(-n2c(Cc3ccccc3)nnc2SCC(=O)N2CCOCC2)c1		inactive: -5.33%
c1nc(NCc2ccc3c(c2)OCO3)c2cc(-c3ccoc3)ccc2n1	inconclusive [inhibitor, full curve, poor fit]	
CC(=O)C(Sc1ccc2nnc(-c3cccnc3)n2n1)C(C)=O		inactive: -2.31%
Cc1ccc(S(=O)(=O)/N=C(/c2ccccc2)N2CCOCC2)cc1		inactive: 1.38%
O=C(CCN1C(=O)c2ccc([N+](=O)[O-])cc2C1=O)Nc1cccc(O)c1	inconclusive [inhibitor, full curve, poor fit]	
COc1ccc(C2=NOC(Cn3nc(C(=O)NCc4ccco4)cc3-c3ccccc3)C2)cc1 (configuration not stated)		inactive: -4.97%
COc1ccc(CCCc2nnc(SCC(=O)Nc3nc(C)cs3)n2C)cc1C		inactive: -2.07%
CCOC(=O)c1c(NC(=O)Cc2ccccc2)sc2c1CC(C)(C)NC2(C)C	inconclusive [inhibitor, full curve, poor fit]	
CCCC(=O)OCC(=O)Nc1ccc(N=Nc2ccccc2)cc1	inconclusive [inhibitor, full curve, poor fit]	
CCNc1ccc(C(=O)OCC)cc1NC(=O)c1cccc(N(C)C)c1	inconclusive [inhibitor, full curve, poor fit]	
O=C(CCc1nc(-c2ccccc2)no1)NCC1CCCO1 (configuration not stated)	inconclusive [inhibitor, partial curve, poor fit]	
Cc1cccc(C)c1OCc1nnc(SCC(=O)Nc2nccs2)o1	inconclusive [inhibitor, full curve, poor fit]	
CCc1cccc(C)c1NC(=S)N(Cc1cccnc1)Cc1ccco1	inconclusive [inhibitor, full curve]	
Cc1oc(-c2ccccc2F)nc1CS(=O)CC(=O)NCc1cccs1 (configuration not stated)	inconclusive [inhibitor, partial curve, poor fit]	
CC(=O)[C@@H]1[C@@H]2C(=O)N(C3CCCCC3)C(=O)[C@@H]2C2c3ccccc3C=CN21 (some centres not stated)	inconclusive [inhibitor, partial curve, poor fit]	
COc1ccc(C(=O)Nc2ccccc2C(=O)NCc2ccco2)cc1OC	inconclusive [inhibitor, partial curve]	
O=C1c2ccccc2S(=O)(=O)N1CC(O)Cn1c2ccccc2c2ccccc21 (configuration not stated)	inconclusive [inhibitor, partial curve, poor fit]	
